Measurements: patent US8415310B2, “Isoxazoline derivatives as antiparasitic agents” (AH USA 42 LLC, priority 2010, dated 2013)
Some of these results come from one statement about several compounds together.

Columns and labels:
[1] = tested on: Haematobia irritans; experiment: Horn Fly (Haematobia irritans) Feed Assay; assay type: in vivo; conditions: horn flies fed on treated citrated bovine blood; knockdown and mortality at approximately 2 and 24 hours
[2] = tested on: Ctenocephalides felis; experiment: Flea (Ctenocephalides felis) Membrane Feed Assay-Adult; assay type: in vivo; conditions: adult fleas fed on treated citrated bovine blood approximately 2 hours; knockdown and/or death at approximately 2 and 24 hours

Compound | lethal dose 90% (LD^90) [1] | lethal dose 90% (LD^90) [2]
O=C(N1CC(F)(c2ccc(C3=NOC(c4cc(Cl)c(Cl)c(Cl)c4)(C(F)(F)F)C3)cc2)C1)C1(O)CC1 (stereo not drawn) [Example 65, 1-[(3-fluoro-3-{4-[5-(3,4,5-trichlorophenyl)-5-(trifluoromethyl)-4,5-dihydroisoxazol-3-yl]phenyl}azetidin-1-yl)carbonyl]cyclopropanol] | ≤ 3 µg/mL | ≤ 3 µg/mL
O=C(C1CC1)N1CC(F)(c2ccc(C3=NOC(c4cc(Cl)cc(C(F)(F)F)c4)(C(F)(F)F)C3)cc2)C1 (stereo not drawn) [Example 69, 5-[3-chloro-5-(trifluoromethyl)phenyl]-3-{4-[1-(cyclopropylcarbonyl)-3-fluoroazetidin-3-yl]phenyl}-5-(trifluoromethyl)-4,5-dihydroisoxazole] | ≤ 3 µg/mL | ≤ 3 µg/mL
N#CCC(=O)N1CC(F)(c2ccc(C3=NOC(c4cc(Cl)c(Cl)c(C(F)(F)F)c4)(C(F)(F)F)C3)cc2)C1 (stereo not drawn) [Example 77, 3-[3-(4-{5-[3,4-dichloro-5-(trifluoromethyl)phenyl]-5-(trifluoromethyl)-4,5-dihydroisoxazol-3-yl}phenyl)-3-fluoroazetidin-1-yl]-3-oxopropanenitrile] | ≤ 3 µg/mL | ≤ 1 µg/mL
N#CC1(c2ccc(C3=NOC(c4cc(Cl)c(Cl)c(Cl)c4)(C(F)(F)F)C3)cc2)CN(C(=O)C2CC2)C1 (stereo not drawn) [Example 87, 1-(cyclopropanecarbonyl)-3-(4-(5-(3,4,5-trichlorophenyl)-5-(trifluoromethyl)-4,5-dihydroisoxazol-3-yl)phenyl)azetidine-3-carbonitrile] | ≤ 1 µg/mL | ≤ 3 µg/mL
CC(=O)N1CC(c2ccc(C3=NOC(c4cc(Cl)c(Cl)c(C(F)(F)F)c4)(C(F)(F)F)C3)cc2)C1 (stereo not drawn) [Example 108, 3-[4-(1-acetylazetidin-3-yl)phenyl]-5-[3,4-dichloro-5-(trifluoromethyl)phenyl]-5-(trifluoromethyl)-4,5-dihydroisoxazole] | ≤ 3 µg/mL | ≤ 3 µg/mL
O=C(CO)N1CC(c2ccc(C3=NOC(c4cc(Cl)c(Cl)c(C(F)(F)F)c4)(C(F)(F)F)C3)cc2)C1 (stereo not drawn) [Example 112, 2-[3-(4-{5-[3,4-dichloro-5-(trifluoromethyl)phenyl]-5-(trifluoromethyl)-4,5-dihydroisoxazol-3-yl}phenyl)azetidin-1-yl]-2-oxoethanol] | ≤ 3 µg/mL | ≤ 3 µg/mL
N#CCC(=O)N1CC(c2ccc(C3=NOC(c4cc(Cl)c(Cl)c(C(F)(F)F)c4)(C(F)(F)F)C3)cc2)C1 (stereo not drawn) [Example 117, 3-[3-(4-{5-[3,4-dichloro-5-(trifluoromethyl)phenyl]-5-(trifluoromethyl)-4,5-dihydroisoxazol-3-yl}phenyl)azetidin-1-yl]-3-oxopropanenitrile] | ≤ 1 µg/mL | ≤ 0.3 µg/mL
O=C(N1CC(F)(F)C1)N1CC(F)(c2ccc(C3=NOC(c4cc(Cl)c(F)c(Cl)c4)(C(F)(F)F)C3)cc2)C1 (stereo not drawn) [Example 133, 5-(3,5-dichloro-4-fluorophenyl)-3-(4-{1-[(3,3-difluoroazetidin-1-yl)carbonyl]-3-fluoroazetidin-3-yl}phenyl)-5-(trifluoromethyl)-4,5-dihydroisoxazole] | ≤ 3 µg/mL | ≤ 1 µg/mL
O=CNCC(=O)N1CC(F)(c2ccc(C3=NOC(c4cc(Cl)c(F)c(Cl)c4)(C(F)(F)F)C3)cc2)C1 (stereo not drawn) [Example 137, N-[2-(3-{4-[5-(3,5-dichloro-4-fluorophenyl)-5-(trifluoromethyl)-4,5-dihydroisoxazol-3-yl]phenyl}-3-fluoroazetidin-1-yl)-2-oxoethyl]formamide] | ≤ 1 µg/mL | ≤ 0.3 µg/mL
